The source holds several records for some structures; these can differ, active in one and inactive in another. Calls come from the whole dose curve. The source holds more than one record for some entries. This is not the full list of results. The source may hold further records. Results that share an entry repeat one measurement (runs, samples, wells, individuals or studies). A tag in brackets gives the origin of a value. Letters hold for one entry only.
Potency is the fitted concentration of half-maximal effect.

The experiment addresses Gonadotropin-releasing hormone receptor (Homo sapiens) (UniProt P30968). The experiment in a line: Human gonadotropin-releasing hormone receptor (GnRHR) small molecule agonists, calcium flux assay in GnRHR-HEK293 cells (AID 1920063). Note: nearly all actives have a fitted effect of over 35% in size. Conditions: calcium flux fluorescence, agonist mode; series mostly up to 26.4 µM. From the text: National Center for Advancing Translational Sciences [NCATS]
Sequence of UniProt P30968 (P30968 whole entry, looked up): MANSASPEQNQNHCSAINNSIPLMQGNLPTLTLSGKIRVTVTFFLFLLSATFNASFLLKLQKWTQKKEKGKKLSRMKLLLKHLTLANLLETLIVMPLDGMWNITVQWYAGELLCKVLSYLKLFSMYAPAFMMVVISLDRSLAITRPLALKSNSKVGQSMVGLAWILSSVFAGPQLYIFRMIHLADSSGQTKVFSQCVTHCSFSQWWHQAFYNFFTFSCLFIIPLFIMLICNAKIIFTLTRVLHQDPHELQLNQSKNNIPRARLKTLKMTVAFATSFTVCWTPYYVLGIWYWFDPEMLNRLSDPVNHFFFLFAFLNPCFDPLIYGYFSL
Division of Preclinical Innovation [DPI]
U.S. Environmental Protection Agency [EPA]
National Institutes of Environmental Health Sciences [NIEHS]
National Toxicology Program [NTP]
U.S. Food and Drug Administration [FDA]
Gonadotropin-releasing hormone receptor (GnRHR) is a G-protein-coupled receptor (GPCR) and acts (through phospholipase C) to increase intracellular inositol trisphosphate and then release intracellular calcium stores. Cell-based GnRHR-Hek293 calcium influx assay is using HEK293 cells that have been genetically engineered to express the human GnRHR, which activity can be measured by calcium signaling. A compound/drug can activate (agonist) GnRHR that can be monitored by levels of intracellular calcium.
GnRHR-HEK293 cells developed by Codex Corp contain human GnRHR reporter gene, which was stably integrated into HEK 293 cells. The compound activation can be detected by fluorescence intensity via calcium flux assay. This cell line has been used to screen the Tox21 10K compound library to identify GnRHR agonists.
GnRHR-Hek293 cells were dispensed at 1500cells/4uL/well in 1536-well black wall/clear bottom plates using a multidrop dispenser. After the assay plates were incubated at a 37 C/5% CO2 incubator for 18 hours, 4 uL of Calcium Dye Solution was added to each well. The plates were incubated at 37 C for 1 hour. For agonist mode, 23 nL of compounds dissolved in DMSO, positive controls or DMSO only was transferred to the assay plate by a pin tool station. The fluorescence intensity in the plates was measured using FDSS 7000EX kinetic plate reader with a filter set of Ex/Em=480/540 for 3 min at 1 sec intervals. Each test compound was measured at 15 concentrations and in triplicates.
In general terms: A change in cytosolic calcium serves as a functional read-out for many receptors and channels.
As to `COC(=O)c1cccc(C(=O)OC)c1`, the Potency result is “inactive [sample A] and active: 43.7 µM [sample B]”.

Consider `Oc1c(Cl)cc(Cl)cc1Sc1cc(Cl)cc(Cl)c1O`, for which the Potency entry is “active: 39 µM [sample A] and active: 38.9 µM [sample B] and inactive [sample C]”.

Consider `CCCCCCCCCCCCCC[N+](C)(C)C`, for which the Potency entry was “active: 27.5 µM [sample A] and inactive [sample B]”.

`C#CC1(O)CC[C@H]2[C@@H]3CCC4=CCCC[C@@H]4[C@H]3CC[C@@]21C` (stereo not given in full): the Potency entry was “active: 38.9 µM [sample A] and inactive [sample B]”.

Turning to `C=C[C@@]1(C)CC(=O)[C@]2(O)[C@@]3(C)[C@@H](O)CCC(C)(C)[C@@H]3[C@H](O)[C@H](OC(C)=O)[C@@]2(C)O1`, the Potency entry was “active: 4.9 µM [sample A] and inactive [sample B]”.

For the origin of these results see PubChem BioAssay (Tox21).
